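Interpolation was linear, between the two tested concentrations surrounding the appropriate level; five concentrations were tested over 48 hours in 96-well plates. GI50 = concentration required for 50% inhibition of growth.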 Certain results were filed several times, with different values. The other results are left out here. There may be further records. A record mostly stands for its own series of concentrations, which the source does not state; a value can be the end of its range.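 TGI denotes the concentration required for complete inhibition of growth.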
Assays:
Experiment in all cases: NCI tumour cell line growth inhibition, 48 h
RPMI-8226 leukemia = system: RPMI-8226 leukemia
CCRF-CEM leukemia = system: CCRF-CEM leukemia
NCI-H522 lung = system: NCI-H522 lung
MOLT-4 leukemia = system: MOLT-4 leukemia
HL-60(TB) leukemia = system: HL-60(TB) leukemia
K-562 leukemia = system: K-562 leukemia
A549 NSCLC = system: A549 NSCLC
HOP-62 NSCLC = system: HOP-62 NSCLC

Compound | GI50 (RPMI-8226 leukemia) | GI50 (CCRF-CEM leukemia) | TGI (CCRF-CEM leukemia) | TGI (NCI-H522 lung) | GI50 (MOLT-4 leukemia) | TGI (MOLT-4 leukemia) | GI50 (HL-60(TB) leukemia) | TGI (HL-60(TB) leukemia) | TGI (K-562 leukemia) | TGI (A549 NSCLC) | TGI (HOP-62 NSCLC)
S=C(S)N1CCCCC1 | 58.3 nM and > 406 µM | 223 nM and 46.7 µM | 715 nM and > 406 µM | 1.14 µM and 93.3 µM | 34.5 nM and 114 µM | 20.3 µM and > 406 µM | 6.86 µM and > 406 µM | 854 nM, 33.7 µM, > 406 µM | 8.17 µM and > 406 µM |  | 
CC(=O)NC1C(OCc2ccccc2)OC(CO)C(O)C1OC(C)C(=O)NC(C)C(=O)N[C@@H](CCC(=O)OCCCNC1c2ccccc2Nc2cccc([N+](=O)[O-])c21)C(N)=O (stereo partly specified) |  |  |  |  |  |  |  |  |  | 335 nM and 12.4 nM | 117 nM and 10.5 nM

Reference: PubChem BioAssay (NCI)
